# Source: the supplement of paper PMC12230231
# Test system: SIVsab (simian immunodeficiency virus of sabaeus monkeys), single-cycle GFP reporter, in CRFK cells
# Test: enrichment among uninfected cells over input (fold); higher = stronger restriction
# Conditions: library: human / rhesus combinations
# Experimental: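 Pools of CRFK cells expressing variants of the TRIM5α v1 loop were challenged with the single-cycle reporter, sorted by GFP and sequenced; mean of two replicates.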
row,Sequence,enrichment
1,"MASGILVNVKEEVTCPICLELLTQPLSLDCGHSFCQACLTANHKKSMLDKGESSCPVCRISYQPENIRPNRHVANIVEKLREVKLSPEGQKVDHCARHGEKLLLFCQEDGKVICWLCERSQEHRGHHTFLTEEVAREYQVKLQAALEMLRQKQQEAEELEADIREEKASWKTQIQYDKTNVLADFEQLRDILDWEESNELQNLEKEEEDILKSLTNSETEMVQQTQSLRELISDLEHRLQGSVMELLQGVDGVIKRTENVTLKKPETFPKNQRRVFRAPDLKGMLEVFRELTDVRRYWVDVTVAPNNISCAVISEDKRQVSSPKPQIIYGAPGTLFTFQSLVNFNYCTGILGSQSITSGKHYWEVDVSKKTAWILGVCAGFQPDAMCNIEKNENYQPKYGYWVIGLEEGVKCSAFQDSSFHTPSVPFIVPLSVIICPDRVGVFLDYEACTVSFFNITNHGFLIYKFSHCSFSQPVFPYLNPRKCGVPMTLCSPSS [human TRIM5α, 330-340 = GAPGTLFTFQSLV]",0.205 ± 0.13
2,"MASGILVNVKEEVTCPICLELLTQPLSLDCGHSFCQACLTANHKKSMLDKGESSCPVCRISYQPENIRPNRHVANIVEKLREVKLSPEGQKVDHCARHGEKLLLFCQEDGKVICWLCERSQEHRGHHTFLTEEVAREYQVKLQAALEMLRQKQQEAEELEADIREEKASWKTQIQYDKTNVLADFEQLRDILDWEESNELQNLEKEEEDILKSLTNSETEMVQQTQSLRELISDLEHRLQGSVMELLQGVDGVIKRTENVTLKKPETFPKNQRRVFRAPDLKGMLEVFRELTDVRRYWVDVTVAPNNISCAVISEDKRQVSSPKPQIIYQARGTRFQSLVNFNYCTGILGSQSITSGKHYWEVDVSKKTAWILGVCAGFQPDAMCNIEKNENYQPKYGYWVIGLEEGVKCSAFQDSSFHTPSVPFIVPLSVIICPDRVGVFLDYEACTVSFFNITNHGFLIYKFSHCSFSQPVFPYLNPRKCGVPMTLCSPSS [human TRIM5α, 330-340 = QARGTRFQSLV]",0.277 ± 0.39
3,"MASGILVNVKEEVTCPICLELLTQPLSLDCGHSFCQACLTANHKKSMLDKGESSCPVCRISYQPENIRPNRHVANIVEKLREVKLSPEGQKVDHCARHGEKLLLFCQEDGKVICWLCERSQEHRGHHTFLTEEVAREYQVKLQAALEMLRQKQQEAEELEADIREEKASWKTQIQYDKTNVLADFEQLRDILDWEESNELQNLEKEEEDILKSLTNSETEMVQQTQSLRELISDLEHRLQGSVMELLQGVDGVIKRTENVTLKKPETFPKNQRRVFRAPDLKGMLEVFRELTDVRRYWVDVTVAPNNISCAVISEDKRQVSSPKPQIIYGAPGTLYTFPSFTNFNYCTGILGSQSITSGKHYWEVDVSKKTAWILGVCAGFQPDAMCNIEKNENYQPKYGYWVIGLEEGVKCSAFQDSSFHTPSVPFIVPLSVIICPDRVGVFLDYEACTVSFFNITNHGFLIYKFSHCSFSQPVFPYLNPRKCGVPMTLCSPSS [human TRIM5α, 330-340 = GAPGTLYTFPSFT]",0.193 ± 0.1
4,"MASGILVNVKEEVTCPICLELLTQPLSLDCGHSFCQACLTANHKKSMLDKGESSCPVCRISYQPENIRPNRHVANIVEKLREVKLSPEGQKVDHCARHGEKLLLFCQEDGKVICWLCERSQEHRGHHTFLTEEVAREYQVKLQAALEMLRQKQQEAEELEADIREEKASWKTQIQYDKTNVLADFEQLRDILDWEESNELQNLEKEEEDILKSLTNSETEMVQQTQSLRELISDLEHRLQGSVMELLQGVDGVIKRTENVTLKKPETFPKNQRRVFRAPDLKGMLEVFRELTDVRRYWVDVTVAPNNISCAVISEDKRQVSSPKPQIIYGAPGTLYTFPSLVNFNYCTGILGSQSITSGKHYWEVDVSKKTAWILGVCAGFQPDAMCNIEKNENYQPKYGYWVIGLEEGVKCSAFQDSSFHTPSVPFIVPLSVIICPDRVGVFLDYEACTVSFFNITNHGFLIYKFSHCSFSQPVFPYLNPRKCGVPMTLCSPSS [human TRIM5α, 330-340 = GAPGTLYTFPSLV]",0.178 ± 0.1
5,"MASGILVNVKEEVTCPICLELLTQPLSLDCGHSFCQACLTANHKKSMLDKGESSCPVCRISYQPENIRPNRHVANIVEKLREVKLSPEGQKVDHCARHGEKLLLFCQEDGKVICWLCERSQEHRGHHTFLTEEVAREYQVKLQAALEMLRQKQQEAEELEADIREEKASWKTQIQYDKTNVLADFEQLRDILDWEESNELQNLEKEEEDILKSLTNSETEMVQQTQSLRELISDLEHRLQGSVMELLQGVDGVIKRTENVTLKKPETFPKNQRRVFRAPDLKGMLEVFRELTDVRRYWVDVTVAPNNISCAVISEDKRQVSSPKPQIIYQARGTRFTFPTLVNFNYCTGILGSQSITSGKHYWEVDVSKKTAWILGVCAGFQPDAMCNIEKNENYQPKYGYWVIGLEEGVKCSAFQDSSFHTPSVPFIVPLSVIICPDRVGVFLDYEACTVSFFNITNHGFLIYKFSHCSFSQPVFPYLNPRKCGVPMTLCSPSS [human TRIM5α, 330-340 = QARGTRFTFPTLV]",0.354 ± 0.15

# Same assay, conditions: library: insertions and deletions
row,Sequence,enrichment
1,"MASGILVNVKEEVTCPICLELLTQPLSLDCGHSFCQACLTANHKKSMLDKGESSCPVCRISYQPENIRPNRHVANIVEKLREVKLSPEGQKVDHCARHGEKLLLFCQEDGKVICWLCERSQEHRGHHTFLTEEVAREYQVKLQAALEMLRQKQQEAEELEADIREEKASWKTQIQYDKTNVLADFEQLRDILDWEESNELQNLEKEEEDILKSLTNSETEMVQQTQSLRELISDLEHRLQGSVMELLQGVDGVIKRTENVTLKKPETFPKNQRRVFRAPDLKGMLEVFRELTDVRRYWVDVTVAPNNISCAVISEDKRQVSSPKPQIIYGARGTRYQTFVNFTGILGSQSITSGKHYWEVDVSKKTAWILGVCAGFQPDAMCNIEKNENYQPKYGYWVIGLEEGVKCSAFQDSSFHTPSVPFIVPLSVIICPDRVGVFLDYEACTVSFFNITNHGFLIYKFSHCSFSQPVFPYLNPRKCGVPMTLCSPSS [human TRIM5α, 3-codon deletion at 343]",0.7254 ± 0.00073
2,"MASGILVNVKEEVTCPICLELLTQPLSLDCGHSFCQACLTANHKKSMLDKGESSCPVCRISYQPENIRPNRHVANIVEKLREVKLSPEGQKVDHCARHGEKLLLFCQEDGKVICWLCERSQEHRGHHTFLTEEVAREYQVKLQAALEMLRQKQQEAEELEADIREEKASWKTQIQYDKTNVLADFEQLRDILDWEESNELQNLEKEEEDILKSLTNSETEMVQQTQSLRELISDLEHRLQGSVMELLQGVDGVIKRTENVTLKKPETFPKNQRRVFRAPDLKGMLEVFRELTDVRRYWVDVTVAPNNISCAVISEDKRQVSSPKPQIIYGARGTRYQTFVNFSQSITSGKHYWEVDVSKKTAWILGVCAGFQPDAMCNIEKNENYQPKYGYWVIGLEEGVKCSAFQDSSFHTPSVPFIVPLSVIICPDRVGVFLDYEACTVSFFNITNHGFLIYKFSHCSFSQPVFPYLNPRKCGVPMTLCSPSS [human TRIM5α, 8-codon deletion at 343]",4.21 ± 4.7
3,"MASGILVNVKEEVTCPICLELLTQPLSLDCGHSFCQACLTANHKKSMLDKGESSCPVCRISYQPENIRPNRHVANIVEKLREVKLSPEGQKVDHCARHGEKLLLFCQEDGKVICWLCERSQEHRGHHTFLTEEVAREYQVKLQAALEMLRQKQQEAEELEADIREEKASWKTQIQYDKTNVLADFEQLRDILDWEESNELQNLEKEEEDILKSLTNSETEMVQQTQSLRELISDLEHRLQGSVMELLQGVDGVIKRTENVTLKKPETFPKNQRRVFRAPDLKGMLEVFRELTDVRRYWVDVTVAPNNISCAVISEDKRQVSSPKPQIIYGARGTFVNFNYCTGILGSQSITSGKHYWEVDVSKKTAWILGVCAGFQPDAMCNIEKNENYQPKYGYWVIGLEEGVKCSAFQDSSFHTPSVPFIVPLSVIICPDRVGVFLDYEACTVSFFNITNHGFLIYKFSHCSFSQPVFPYLNPRKCGVPMTLCSPSS [human TRIM5α, 4-codon deletion at 335]",0.56 ± 0.21
4,"MASGILVNVKEEVTCPICLELLTQPLSLDCGHSFCQACLTANHKKSMLDKGESSCPVCRISYQPENIRPNRHVANIVEKLREVKLSPEGQKVDHCARHGEKLLLFCQEDGKVICWLCERSQEHRGHHTFLTEEVAREYQVKLQAALEMLRQKQQEAEELEADIREEKASWKTQIQYDKTNVLADFEQLRDILDWEESNELQNLEKEEEDILKSLTNSETEMVQQTQSLRELISDLEHRLQGSVMELLQGVDGVIKRTENVTLKKPETFPKNQRRVFRAPDLKGMLEVFRELTDVRRYWVDVTVAPNNISCAVISEDKRQVSSPKPQIIYGARGTRYFNYCTGILGSQSITSGKHYWEVDVSKKTAWILGVCAGFQPDAMCNIEKNENYQPKYGYWVIGLEEGVKCSAFQDSSFHTPSVPFIVPLSVIICPDRVGVFLDYEACTVSFFNITNHGFLIYKFSHCSFSQPVFPYLNPRKCGVPMTLCSPSS [human TRIM5α, 5-codon deletion at 337]",0.899 ± 0.59
5,"MASGILVNVKEEVTCPICLELLTQPLSLDCGHSFCQACLTANHKKSMLDKGESSCPVCRISYQPENIRPNRHVANIVEKLREVKLSPEGQKVDHCARHGEKLLLFCQEDGKVICWLCERSQEHRGHHTFLTEEVAREYQVKLQAALEMLRQKQQEAEELEADIREEKASWKTQIQYDKTNVLADFEQLRDILDWEESNELQNLEKEEEDILKSLTNSETEMVQQTQSLRELISDLEHRLQGSVMELLQGVDGVIKRTENVTLKKPETFPKNQRRVFRAPDLKGMLEVFRELTDVRRYWVDVTVAPNNISCAVISEDKRQVSSPIYGARGTRYQTFVNFNYCTGILGSQSITSGKHYWEVDVSKKTAWILGVCAGFQPDAMCNIEKNENYQPKYGYWVIGLEEGVKCSAFQDSSFHTPSVPFIVPLSVIICPDRVGVFLDYEACTVSFFNITNHGFLIYKFSHCSFSQPVFPYLNPRKCGVPMTLCSPSS [human TRIM5α, 4-codon deletion at 324]",0.475 ± 0.17
6,"MASGILVNVKEEVTCPICLELLTQPLSLDCGHSFCQACLTANHKKSMLDKGESSCPVCRISYQPENIRPNRHVANIVEKLREVKLSPEGQKVDHCARHGEKLLLFCQEDGKVICWLCERSQEHRGHHTFLTEEVAREYQVKLQAALEMLRQKQQEAEELEADIREEKASWKTQIQYDKTNVLADFEQLRDILDWEESNELQNLEKEEEDILKSLTNSETEMVQQTQSLRELISDLEHRLQGSVMELLQGVDGVIKRTENVTLKKPETFPKNQRRVFRAPDLKGMLEVFRELTDVRRYWVDVTVAPNNISCAVISEDKRQVSSPKPQIARGTRYQTFVNFNYCTGILGSQSITSGKHYWEVDVSKKTAWILGVCAGFQPDAMCNIEKNENYQPKYGYWVIGLEEGVKCSAFQDSSFHTPSVPFIVPLSVIICPDRVGVFLDYEACTVSFFNITNHGFLIYKFSHCSFSQPVFPYLNPRKCGVPMTLCSPSS [human TRIM5α, 3-codon deletion at 328]",0.991 ± 0.61
7,"MASGILVNVKEEVTCPICLELLTQPLSLDCGHSFCQACLTANHKKSMLDKGESSCPVCRISYQPENIRPNRHVANIVEKLREVKLSPEGQKVDHCARHGEKLLLFCQEDGKVICWLCERSQEHRGHHTFLTEEVAREYQVKLQAALEMLRQKQQEAEELEADIREEKASWKTQIQYDKTNVLADFEQLRDILDWEESNELQNLEKEEEDILKSLTNSETEMVQQTQSLRELISDLEHRLQGSVMELLQGVDGVIKRTENVTLKKPETFPKNQRRVFRAPDLKGMLEVFRELTDVRRYWVDVTVAPNNISCAVISEDKRQVSSPKPQIIYGARGTRYQTFVNFNFVNFNYCTGILGSQSITSGKHYWEVDVSKKTAWILGVCAGFQPDAMCNIEKNENYQPKYGYWVIGLEEGVKCSAFQDSSFHTPSVPFIVPLSVIICPDRVGVFLDYEACTVSFFNITNHGFLIYKFSHCSFSQPVFPYLNPRKCGVPMTLCSPSS [human TRIM5α, 5-codon duplication at 339]",0.654 ± 0.66

# ± gives the standard deviation of the averaged measurements. Restriction of a single-cycle SIVsab GFP reporter by TRIM5α v1-loop variants in CRFK cells. Human variants: read share among cells still uninfected after two challenges over input, higher = gained restriction. Rhesus variants: share among infected cells over input, higher = lost restriction. Reporter dose not given per row. No active / inactive call per row; the paper calls a change when both replicates lie above its controls (mean + 2 SD of stop or wild-type variants, or the top frameshift score). Residues outside the varied loop are taken from Swiss-Prot. The paper reads the human single-substitution scores as noise; they and the rhesus combinations repeat poorly (rank correlation 0.3 to 0.4), indel scores repeat only for the top variants, rhesus substitutions well (0.9).
